Results reported in the supplement of paper PMC10600219.
Where a name gives a salt, the structure may show the parent alone. The full ranking holds about 2,800 compounds; the median of “cell viability relative to vehicle” is about 0.98, and the lowest 2% start at about 0.45. The list shows a part of the results.

Each molecule was assayed on NCI-H2228 alectinib-DTP (assay: cell viability relative to vehicle (fraction of vehicle); NCI-H2228 is an ALK-positive lung cancer line and DTP means drug-tolerant persister; higher = less growth inhibition). Details: 100 nM; treatment time 6 days.
Method in brief: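 Each value is viability relative to vehicle-treated cells, measured as ATP with the CellTiter-Glo 3D Cell Viability Assay. Parental NCI-H2228 cells and drug-tolerant persisters (1000 nM targeted drug, 13 days) in 384-well plates received the 3114-agent TargetMol anti-cancer compound library at 100 nM, or DMSO, and were read 6 days later.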
Cc1cc(C)nc(NS(=O)(=O)c2ccc(NC(=S)NC(=O)COc3ccc(Br)cc3Cl)cc2)n1 was tested, and the cell viability was 0.789.
In the case of CCOc1ccc(Cc2nccc3cc(OCC)c(OCC)cc23)cc1OCC [Ethaverine hydrochloride], the cell viability is reported as 1.05.
Molecule O=C(Nc1ccc([N+](=O)[O-])cc1Cl)c1cc(Cl)ccc1O [Niclosamide] has a cell viability of 0.995.
Molecule O=C(Nc1cccnc1)N1CCC(Cc2cccc(Oc3ccc(C(F)(F)F)cn3)c2)CC1 has a cell viability of 0.941.
Work on Cc1cccc(-c2nn3c(c2-c2ccnc4ccc(C(N)=O)cc24)CCC3)n1 [Galunisertib] yielded a cell viability of 0.971.
Molecule CC(C)c1nc(CN(C)C(=O)N[C@@H](CCN2CCOCC2)C(=O)N[C@H](CC[C@H](Cc2ccccc2)NC(=O)OCc2cncs2)Cc2ccccc2)cs1 [Cobicistat] has a cell viability of 1.02.
For CCCCCCCC(=O)c1c(O)cc(O)cc1CC(=O)OCC [Cytosporone B], the cell viability was 1.11.
CC(CN(C)C)CN1c2ccccc2CCc2ccccc21 (stereo unspecified) [Trimipramine maleate] showed a cell viability of 1.03.
CN1CCN(c2ccc(C(=O)Nc3cc(-c4cccc(NS(=O)(=O)c5ccccc5)c4)[nH]n3)cc2)CC1 gave a cell viability of 0.98.
Work on O=C(c1ccccc1)c1ccc2nc(NC(=O)c3csc(C4CCN(c5ncnc6ccsc56)CC4)n3)[nH]c2c1 yielded a cell viability of 0.998.
Molecule CCc1ccc(OCC(=O)Nc2ccc(F)c([N+](=O)[O-])c2)cc1 has a cell viability of 0.967.
Molecule C[C@H]1COC2(CCN(c3nc(=O)c4cc(C(F)(F)F)cc([N+](=O)[O-])c4s3)CC2)O1 has a cell viability of 1.05.
In the case of CC(C)C(=O)c1c(C(C)C)nn2ccccc12 [Ibudilast], the cell viability is reported as 1.
Work on CC(=O)NC(CC(C)C)C(=O)O (stereo unspecified) [Acetylleucine] yielded a cell viability of 1.01.
CCS(=O)(=O)N1CCN(c2ccc(Nc3ncc(C(N)=O)c(NC4CC4)n3)cc2)CC1 [Cerdulatinib] was tested, and the cell viability was 0.779.
For COc1cc2ccc(=O)oc2cc1OC [Scoparone], the cell viability was 0.976.
For C=C1CC[C@H](O)C/C1=C/C=C1\CCC[C@]2(C)[C@@H]([C@H](C)/C=C/[C@H](C)C(C)C)CC[C@@H]12 [Vitamin D2], the cell viability was 1.13.
Cc1ccc(C(=O)N(CCCN)[C@@H](c2oc3cc(Cl)ccc3c(=O)c2Cc2ccccc2)C(C)C)cc1 was tested, and the cell viability was 0.675.
For CC(C)(C)NC(=O)[C@H]1CC[C@H]2[C@@H]3CC[C@H]4NC(=O)C=C[C@]4(C)[C@H]3CC[C@]12C [Finasteride], the cell viability was 1.14.
Cc1ccc(C(=O)Cn2c3c(sc2=N)CCCC3)cc1 [Pifithrin-α] gave a cell viability of 0.76.
C=CC[N+]1([C@H]2C[C@H]3[C@@H]4CC[C@H]5C[C@H](O)[C@@H](N6CCOCC6)C[C@]5(C)[C@H]4CC[C@]3(C)[C@H]2OC(C)=O)CCCC1 [Rocuronium bromide] gave a cell viability of 1.06.
COc1ccc(C=C(C#N)c2cccnc2)cc1OC showed a cell viability of 0.956.
Work on C[C@]12CC[C@H](O)CC1=CC[C@@H]1[C@@H]2CC[C@]2(C)C(c3cccnc3)=CC[C@@H]12 [Abiraterone] yielded a cell viability of 0.996.
CC(C)(C)CC(C)(C)c1ccc(OCCOCC[N+](C)(C)Cc2ccccc2)cc1 [Benzethonium chloride] was tested, and the cell viability was 1.1.
Molecule Cn1nnc2c(C(N)=O)ncn2c1=O [Temozolomide] has a cell viability of 0.905.
Work on C=C1C(=O)O[C@H]2[C@H]1CC/C(C)=C/CC[C@@]1(C)O[C@@H]21 [Parthenolide] yielded a cell viability of 1.01.
In the case of COc1ccc(CCC(=O)Nc2nc3ccc(Cl)cc3s2)cc1OC, the cell viability is reported as 0.889.
Nc1ccccc1C(=O)C[C@H](N)C(=O)O [L-Kynurenine] showed a cell viability of 0.987.
In the case of CC(=O)OCC(=O)[C@@]1(O)CC[C@H]2[C@@H]3CCC4=CC(=O)C=C[C@]4(C)[C@H]3[C@@H](O)C[C@@]21C [Prednisolone-21-acetate], the cell viability is reported as 0.849.
Molecule O=C1NC(c2cccc([N+](=O)[O-])c2)=CCN1c1ccccc1O has a cell viability of 0.806.
COC(=O)N[C@H](C(=O)N1CC2(CC2)C[C@H]1c1nc(-c2ccc3c(c2)C(F)(F)c2cc(-c4ccc5[nH]c([C@@H]6[C@H]7CC[C@H](C7)N6C(=O)[C@@H](NC(=O)OC)C(C)C)nc5c4)ccc2-3)c[nH]1)C(C)C [Ledipasvir] showed a cell viability of 1.16.
COc1ccc(CNc2nc(N3CCC[C@H]3CO)ncc2C(=O)NCc2ncccn2)cc1Cl [Avanafil] showed a cell viability of 0.984.
CN1CCN(C(=O)c2cc3cc(Cl)ccc3[nH]2)CC1 showed a cell viability of 1.04.
CC(ONC(=O)c1cc(C(F)(F)F)cc(C(F)(F)F)c1)C(=O)Nc1ccc(Cl)cc1 (stereo unspecified) was tested, and the cell viability was 1.02.
Work on N#CC1(c2ccc(NC(=O)c3cccnc3NCc3ccncc3)cc2)CCCC1 [Apatinib] yielded a cell viability of 0.864.
Molecule OC[C@@H](O)CN1CCN(c2ccccc2)CC1 [Levodropropizine] has a cell viability of 1.03.
Cc1c(Nc2ncccc2C(=O)O)cccc1C(F)(F)F [Flunixin meglumin] was tested, and the cell viability was 1.06.
O=C(/C=C/c1cccnc1)NCCCCC1CCN(C(=O)c2ccccc2)CC1 gave a cell viability of 0.452.
NCCc1ccc(O)c(O)c1 [Dopamine hydrochloride] gave a cell viability of 0.957.
Molecule Nc1nc(N)c2nc(-c3cccc(O)c3)c(-c3cccc(O)c3)nc2n1 has a cell viability of 0.859.
Molecule Cn1cnc2c(F)c(Nc3ccc(Br)cc3Cl)c(C(=O)NOCCO)cc21 [Selumetinib] has a cell viability of 0.927.
Molecule COc1cc(/C=C/C=O)ccc1O [Coniferyl aldehyde] has a cell viability of 1.08.
CCOC(=O)c1c2c3c(cccc3[nH]c1=O)C(=O)c1ccccc1-2 showed a cell viability of 0.964.
With C[C@H](CS)C(=O)N1CCC[C@H]1C(=O)O [Captopril] the cell viability was 0.999.
Work on C=CC(=O)N[C@H]1CCOC[C@H]1Nc1ncc2cc(-c3c(Cl)c(OC)cc(OC)c3Cl)ccc2n1 yielded a cell viability of 0.906.
Cc1c(-c2ccc(-c3ccccc3F)cc2)nc2ccc(F)cc2c1C(=O)O [Brequinar] was tested, and the cell viability was 0.906.
